Measured values: the supplement of paper PMC5499739
Whole data set: some 16,000 sequences, median “Z-score” near -0.37, cut for the highest 2% near 3.1. The list shows a part of the results.

system: RBM10 RRM1-ZnF-RRM2 (GST-tagged construct); assay: RNAcompete 7-mer binding Z-score; higher = stronger binding preference
How it was run: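 GST-tagged RBM10 constructs (20 pmol) and a designed pool of 241 399 RNAs up to 41 nt (1.5 nmol) were allowed to bind for 30 min at 4°C in 1 ml Hepes pH 7.8 buffer with glutathione Sepharose beads. After four 2-min washes at 4°C, bound RNA was identified by microarray hybridisation. Enrichment was scored per heptamer motif as a one-sided Z-score across the probes containing it.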

Row | Sequence | RNAcompete 7-mer binding Z-score
1 | GCCAUCC | -0.788
2 | CGAGUUG | 0.0677
3 | GAAUAAA | -0.00148
4 | AACGGCG | 0.836
5 | AAGGUAG | 3.82
6 | UGCGGAU | 0.228
7 | CUAUGGA | 0.119
8 | GUAUGCU | -0.195
9 | UCGCCUU | -0.934
10 | CAAGCUA | -0.398
11 | GUCUCUG | -0.544
12 | GACAAUC | -0.46
13 | UCCUACG | -0.65
14 | UCUCCUG | -0.661
15 | GAUGCUU | -0.792
16 | AUGUACG | 0.323
17 | GGUUCUG | 0.221
18 | GUGAGAC | 1.04
19 | AAUCCUU | -0.821
20 | UCGGUGC | 0.162
21 | GUGGUGC | 1.68
22 | AUGCAGG | 1.55
23 | UACGGGG | 2.8
24 | CCGUAAC | -0.519

Row | Sequence | RNAcompete 7-mer binding Z-score
25 | GCGACGU | 0.162
26 | CAUCAAA | -0.686
27 | UUCUUCA | -0.828
28 | GCCAAUU | -0.606
29 | AUAGGCC | 0.133
30 | CGUUACG | -0.253
31 | GGAGUCG | 1.6
32 | GCUACGA | -0.5
33 | AUGCGUC | -0.566
34 | UGCUAAG | -0.282
35 | CGUCUCU | -0.672
36 | GCUUCAU | -0.744
37 | GAUAACA | 0.184
38 | CGGCAAC | -0.264
39 | UCUAUCA | -0.715
40 | CUUUUCG | -0.97
41 | CGCUAUA | -0.551
42 | GUAGAAC | 0.556
43 | UGCACGC | -0.486
44 | CCCCCUC | -0.548
45 | GCUCAGU | -0.573
46 | AGACGAA | 0.505
47 | CGAUGGU | 0.894
48 | UCUAACU | -0.697

Row | Sequence | RNAcompete 7-mer binding Z-score
49 | GAACAGU | 0.0859
50 | AUACUCC | -0.865
51 | AAUGUAU | -0.14
52 | UAACCCC | -0.573
53 | AAGAGUG | 1.37
54 | UGCUAGU | -0.511
55 | CCCCGAA | -0.592
56 | UAAUCUC | -0.719
57 | UUUUCGG | -0.267
58 | GCUAAUG | -0.103
59 | UUGGAGA | 1.11
60 | AUUCGUU | -0.562
61 | UGGAUAC | 1.45
62 | UCCCAAG | -0.551
63 | GUGCGGC | 0.833
64 | AUUUGCC | -0.897
65 | GCGCUUC | -0.726
66 | CCGGUAA | 0.0896
67 | GUUACCG | 0.0131
68 | UCCGGCC | -0.763
69 | AAUUGGG | 2.6
70 | UAGUGAA | 0.691
71 | CCACCGG | -0.322
72 | UGCGUUC | -0.646

Row | Sequence | RNAcompete 7-mer binding Z-score
73 | ACGACUG | -0.402
74 | UACACUC | -0.595
75 | GUAGCCC | -0.442
76 | AUCUUGG | -0.311
77 | GUUCAUU | -0.424
78 | UCGGAGU | 0.257
79 | AGGACUG | 0.304
80 | GAGUACU | -0.296
81 | UUGCCAG | -0.479
82 | UGGUUUU | 0.443
83 | GAGCUUC | -0.715
84 | CGCCCAG | -0.632
85 | UCCCGCG | -0.632
86 | CCCUCGG | -0.511
87 | AGCCCGU | -0.941
88 | UCGGUUG | 0.286
89 | GGUCCUA | -0.468
90 | UUCCGCA | -0.788
91 | ACCUCAU | -0.73
92 | UCAUUAA | -0.3
93 | AGCAGGC | 0.807
94 | CAGAAGA | 0.159
95 | GUACAGC | 0.304
96 | GGUAAUG | 2.79

Row | Sequence | RNAcompete 7-mer binding Z-score
97 | CAAAAAA | -0.293
98 | UUAAUGC | -0.697
99 | CGCAGAA | 0.162
100 | UCUGAUC | -0.876
101 | ACAAGCU | -0.639
102 | UCGGUCA | -0.46
103 | CGCCUCG | -0.635
104 | GUAAGGA | 3.28
105 | CGCUUCG | -0.697
106 | GCGAUGG | 2.03
107 | CACUGAU | -0.632
108 | CGAUUCU | -0.836
109 | AGCUCUA | -0.744
110 | UUGGCGG | 1.48
111 | AUUGCGC | -0.439
112 | GUGAUUA | 0.275
113 | CGUCAAU | -0.599
114 | CUACAGA | -0.723
115 | AGUGUGG | 2.64
116 | UUCUAUU | -0.821
117 | CACACCC | -0.697
